Counter-ions that a name gives are not always drawn. ± gives the standard deviation of the averaged measurements. Over roughly 2,000 compounds, “cell viability relative to DMSO control (compound alone)” has its median near 0.98; the lowest 2% begin near 0.23. The list shows a part of the results.

Our source for the cell viability values is the supplement of paper PMC9588766.

The subject of this assay is PDC-DUC18828. In words: cell viability relative to DMSO control (compound alone) (fraction); PDC-DUC18828 is a patient-derived cholangiocarcinoma cell line; higher = less growth inhibition. To be noted: 1 µM; 72 h. The method, then:
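Selleck Bioactive library screen in the patient-derived FGFR2-G3BP2 fusion-positive ICC cell line PDC-DUC18828 (500 cells/well). Each compound was tested at 1 uM alone, in triplicate, for 72 h. Viability was read by CellTiter-Glo and normalised to plate DMSO controls.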
Compound `Cc1cc(C(C)(C)C)cc(C)c1CC1=NCCN1` [Xylometazoline HCl] yielded a cell viability of 1.01 ± 0.032. Regarding `CCN(CC)C(=O)C1(c2ccccc2)CC1CN` (configuration not stated) [Milnacipran HCl], the cell viability worked out at 0.999 ± 0.088.

Compound `COc1cc(NC(=O)c2ccccn2)ccc1Cl` gave a cell viability of 1.01 ± 0.035. For the compound `c1ccc(Cn2c(-c3ccc(OC[C@H](C4CCNCC4)n4c(-c5ccccc5)nc5ccccc54)cc3)nc3ccccc32)cc1` [Deltarasin], the cell viability came to 0.992 ± 0.026. The value for `CCN(CC)CCOCCOC(=O)C1(c2ccccc2)CCCC1` [Pentoxyverine Citrate] was 1.04 ± 0.018; that for `CC#CCn1c(N2CCC[C@@H](N)C2)nc2c1c(=O)n(Cc1nc(C)c3ccccc3n1)c(=O)n2C` [Linagliptin] was 0.912 ± 0.057; that for `CNC(=O)c1ccc(N2C(=S)N(c3ccc(C#N)c(C(F)(F)F)c3)C(=O)C2(C)C)cc1F` [Enzalutamide (MDV3100)] was 0.928 ± 0.033. In the case of `COc1cc(OC)c(NC(=O)Nc2cc(C)on2)cc1Cl`, the cell viability was determined as 1.1 ± 0.017. The value for `CCCc1ccc(OCC(=O)N(Cc2nc(-c3cccnc3)no2)C(C)C)cc1` was 1.04 ± 0.047. The value for `COc1cc2nc(N3CCN(C(=O)C4COc5ccccc5O4)CC3)nc(N)c2cc1OC` (configuration not stated) [Doxazosin Mesylate] was 0.948 ± 0.022; that for `N#C/C(=C(/N)Sc1ccc(N)cc1)c1ccccc1C(F)(F)F` was 1.07 ± 0.029.

On to `O=c1c(O)c(-c2ccc(O)cc2)oc2cc(O)cc(O)c12` [Kaempferol], for which the cell viability came out at 0.934 ± 0.018.

`NC[C@@](O)(c1ccc(Cl)cc1)c1ccc(-c2cn[nH]c2)cc1` displayed a cell viability of 0.929 ± 0.098. The value for `CC(C)(C)c1cc(NC(=O)Nc2ccc(-c3cn4c(n3)sc3cc(OCCN5CCOCC5)ccc34)cc2)no1` [Quizartinib (AC220)] was 1.05 ± 0.022; that for `O=C(/C=C/c1cccc(S(=O)(=O)Nc2ccccc2)c1)NO` [Belinostat (PXD101)] was 0.393 ± 0.016. Consider `CC1=NN(c2ccc(C)c(C)c2)C(=O)/C1=N\Nc1cccc(-c2cccc(C(=O)O)c2)c1O` [Eltrombopag], for which the cell viability stood at 1.04 ± 0.041. `CC1=NN(c2ccc(C)c(C)c2)C(=O)/C1=N\Nc1cccc(-c2cccc(C(=O)O)c2)c1O` [Eltrombopag Olamine] had a cell viability of 1.01 ± 0.018. The value for `CCn1c(=O)c2c(nc(/C=C/c3ccc(OC)c(OC)c3)n2C)n(CC)c1=O` [Istradefylline] was 1.05 ± 0.051; that for `CC(C(O)c1ccc(O)cc1)N1CCC(Cc2ccccc2)CC1` (configuration not stated) [Ifenprodil Tartrate] was 0.983 ± 0.04.

In turn, `C[C@@H]1C/C=C/C=C/C=C/C=C/[C@H](O[C@@H]2O[C@H](C)[C@@H](O)[C@H](N)[C@@H]2O)C[C@@H]2O[C@](O)(C[C@@H](O)C[C@H]3O[C@@H]3/C=C/C(=O)O1)C[C@H](O)[C@H]2C(=O)O` [Natamycin] yielded a cell viability of 1.01 ± 0.049. The value for `CN1CCN2c3ncccc3Cc3ccccc3C2C1` (configuration not stated) [Mirtazapine] was 0.9596 ± 0.0064.

`CC[C@H](NC(=O)[C@H](C)NC)C(=O)N1C[C@@H](O)C[C@H]1Cc1c(-c2[nH]c3cc(F)ccc3c2C[C@@H]2C[C@H](O)CN2C(=O)[C@H](CC)NC(=O)[C@H](C)NC)[nH]c2cc(F)ccc12` [Birinapant] registered a cell viability of 0.938 ± 0.077. The value for `CC(C)N(CC[C@H](c1ccccc1)c1cc(CO)ccc1O)C(C)C` was 1.08 ± 0.032; that for `CC(C)[C@H](N)C(=O)OCCOCn1cnc2c(=O)nc(N)[nH]c21` [Valaciclovir HCl] was 1.03 ± 0.079; that for `Cc1cc(C)nc(NS(=O)(=O)c2ccc(N)cc2)n1` [Sulfamethazine] was 0.948 ± 0.03. Turning to `CC1(C)O[C@@H]2C[C@H]3[C@@H]4C[C@H](F)C5=CC(=O)C=C[C@]5(C)[C@@]4(F)[C@@H](O)C[C@]3(C)[C@]2(C(=O)CO)O1` [Fluocinolone Acetonide], the cell viability amounted to 0.893 ± 0.02. The value for `CC(C)(Oc1ccc(Cl)cc1)C(=O)OCCOC(=O)c1cccnc1` [Etofibrate] was 0.997 ± 0.058; that for `Cc1nc(C(=O)NCC(=O)O)c(O)c2ccc(Oc3ccccc3)cc12` was 0.877 ± 0.05. The value for `COC(=O)C1=CO[C@@H](O)[C@@H]2C(CO)=CC[C@H]12` [Genipin] was 1.02 ± 0.1; that for `CC(O)c1cc(C(=O)N[C@@H](C)Cn2ccc(-c3ccc(C#N)c(Cl)c3)n2)n[nH]1` (some centres not stated) was 0.972 ± 0.099; that for `CCCCCCNC(=O)n1cc(F)c(=O)[nH]c1=O` [Carmofur] was 0.941 ± 0.049.

Take `COc1ccc(Cl)cc1C(=O)NCCc1ccc(S(=O)(=O)NC(=O)NC2CCCCC2)cc1` [Glyburide]: the cell viability was 1.01 ± 0.023. The value for `Nc1nc(=O)n([C@@H]2CS[C@H](CO)O2)cc1F` [Emtricitabine] was 1.05 ± 0.016; that for `COC(=O)N[C@@H](C)CNc1nccc(-c2cn(C(C)C)nc2-c2cc(Cl)cc(NS(C)(=O)=O)c2F)n1` was 0.947 ± 0.03; that for `CC[C@@H]1C(=O)N(C)c2cnc(Nc3ccc(C(=O)N[C@H]4CC[C@H](N5CCN(CC6CC6)CC5)CC4)cc3OC)nc2N1C(C)C` [Volasertib (BI 6727)] was 0.328 ± 0.035. For the compound `CCc1cccc(CC)c1NC(=O)N1Cc2[nH]nc(NC(=O)c3ccc(N4CCN(C)CC4)cc3)c2C1`, the cell viability is 0.688 ± 0.012. The value for `CC#C[C@]1(O)CC[C@H]2[C@@H]3CCC4=CC(=O)CCC4=C3[C@@H](c3ccc(N(C)C)cc3)C[C@@]21C` [Mifepristone] was 1.03 ± 0.034; that for `O=C(O)CCc1ccc(NCc2cccc(Oc3ccccc3)c2)cc1` was 1.05 ± 0.067. Compound `CCS(=O)(=O)N1CC(CC#N)(n2cc(-c3ncnc4[nH]ccc34)cn2)C1` showed a cell viability of 1.02 ± 0.066.

For the compound `O=C1NCC2(CCN(CCc3ccccc3)CC2)O1` [Fenspiride HCl], the cell viability is 1 ± 0.073.

With `Clc1ccc2c(c1)CCc1cccnc1C2=C1CCNCC1` [Desloratadine], the cell viability amounted to 1.01 ± 0.078. Take `C[C@H]1CO[C@@H]2Cn3cc(C(=O)NCc4ccc(F)cc4F)c(=O)c(O)c3C(=O)N12`: the cell viability was found to be 1.06 ± 0.017.

In turn, `Nc1nccc(Oc2ccc(NC(=O)c3c[nH]cc(-c4ccc(F)cc4)c3=O)cc2F)c1Cl` showed a cell viability of 0.997 ± 0.052. The value for `NC(=O)Nc1cc(-c2cccc(F)c2)sc1C(=O)N[C@H]1CCCNC1` was 0.524 ± 0.03. The value for `O=C(c1ccc(F)cc1)C1CCN(CCn2c(=O)[nH]c3ccccc3c2=O)CC1` [Ketanserin] was 1.01 ± 0.049; that for `C[C@H]1[C@H](C)CC[C@]2(C(=O)O)CC[C@]3(C)C(=CC[C@@H]4[C@@]5(C)CC[C@H](O)C(C)(C)[C@@H]5CC[C@]43C)[C@H]12` [Ursolic Acid] was 0.954 ± 0.039; that for `CCCCCCCCCCCCCCCC(=O)OC[C@H](O)[C@H]1OC(=O)C(O)=C1O` [L-Ascorbyl 6-palmitate] was 1.03 ± 0.043.
